Measured values from patent publication US20190322758A1 (IMMUNOPHARMACEUTIC INSTITUTE OF HEFEI RUIDA, published 2019).

T1: LunX protein on the surface of lung cancer NCI-H292 cells (human, UniProt Q9NP55 20-256)
T1 construct: whole, on cells; Endogenous protein on live NCI-H292 cells; also called lung-specific X protein
T1 sequence (looked up): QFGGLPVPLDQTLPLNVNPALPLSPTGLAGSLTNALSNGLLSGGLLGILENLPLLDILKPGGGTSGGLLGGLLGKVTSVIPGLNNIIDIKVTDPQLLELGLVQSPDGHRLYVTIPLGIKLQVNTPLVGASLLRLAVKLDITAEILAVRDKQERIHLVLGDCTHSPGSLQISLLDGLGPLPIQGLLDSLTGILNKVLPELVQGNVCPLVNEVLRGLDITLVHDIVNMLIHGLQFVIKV


Target: T1, LunX protein on the surface of lung …
Experiment: flow cytometry on live NCI-H292 cells
Protocol: Fresh lung cancer NCI-H292 cells (purchased from the Shanghai Cell Bank of the Chinese Academy of Sciences) are divided into two groups; one group is labeled with chimeric antibody and the other group is labeled with human IgG (control). Two groups are further labeled with FITC-labeled mouse anti-human IgG antibody against human IgG. All the labeling steps are performed at 4° C. for 30 minutes. The cells are collected by centrifugation at 350 g for 5 minutes, and washed 3 times with 1×PBS. It can be seen that the chimeric antibody ChAb1 is capable of binding to the LunX protein on the surface of live lung cancer cells.

Row | binding result | Binder
1 | binds | chimeric antibody ChAb1 (Fc fusion, also called scFv-Fc of Ab1) DIVLTQSPASLAVSLGQRATISCRASKSVSTAGYSYMHWYQQKPGQTPKLLIYLASKLESGVPARFSGSGSGTDFTLNIHPVEEEDAATYYCQHSRELTFGSGTKLEIKRAGGGGSGGGGSGGGGSQVQLQQSGPELVKPGASVKISCKTSGYAFSRSWMSWVKQRPGQGLEWIGRIYPGDGDTNYNGKFKGKATLTADKSSSTAYMQLSSLTSVDSAVYFCARSGGIQGYGMDYWGQGTSVTVSS[letters of human IgG1 Fc not shown]
2 | binds | chimeric antibody ChAb2 (Fc fusion, also called scFv-Fc of Ab2) DIVVTQSPAALAVSLGQRATISCRASKSVSTSGYTYMHWYQQKPGQPPKLLIYLASKLESGVPARFSGSGSGTDFTLNIHPVEEEDAATYYCQHSRDLTFGSGTKLEIKRAGGGGSGGGGSGGGGSQVQLQQSGPELVKPGASVKISCKTSGYAFSRSWMSWVKQRPGQGLEWIGRIYPGDGDTKYSGKFEGKATLTADKSSSTAYMQLSSLTSVDSAVYFCARSGGIQGYGMDYWGQGTSVTVSS[letters of human IgG1 Fc not shown]
